Data: article PMC3791464 (eLife, 2013)
No constants are given. Whether binding was seen depends on the method and setting. Binding seen in cells or lysates may run through a third protein. Some binding calls cover weakened binding; strength is not graded here. For part of these data: Where a sequence is shown, tags or fusion partners need not be part of it.

T1: Drosophila Orc2, endogenous in fly ovaries (Drosophila (endogenous in fly ovaries)) (UniProt Q24168)
T1 sequence: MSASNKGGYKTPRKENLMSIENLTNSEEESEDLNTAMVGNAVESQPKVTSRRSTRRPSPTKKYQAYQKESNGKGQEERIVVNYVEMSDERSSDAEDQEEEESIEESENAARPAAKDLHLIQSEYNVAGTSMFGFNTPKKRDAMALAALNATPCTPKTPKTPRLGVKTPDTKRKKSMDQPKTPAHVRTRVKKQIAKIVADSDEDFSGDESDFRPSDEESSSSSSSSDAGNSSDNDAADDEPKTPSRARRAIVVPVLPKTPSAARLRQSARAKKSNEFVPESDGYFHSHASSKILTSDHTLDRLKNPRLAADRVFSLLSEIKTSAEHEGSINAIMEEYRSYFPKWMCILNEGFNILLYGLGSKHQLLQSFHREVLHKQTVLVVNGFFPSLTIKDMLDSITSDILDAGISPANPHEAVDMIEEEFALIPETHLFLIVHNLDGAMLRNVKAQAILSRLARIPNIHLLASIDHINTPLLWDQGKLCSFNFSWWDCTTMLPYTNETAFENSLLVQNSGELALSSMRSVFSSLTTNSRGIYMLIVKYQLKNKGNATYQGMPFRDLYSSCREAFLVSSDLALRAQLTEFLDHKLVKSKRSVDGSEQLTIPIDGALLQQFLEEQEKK

T2: S. cerevisiae MBP–Orc3 (S. cerevisiae) (UniProt P54790)
T2 sequence: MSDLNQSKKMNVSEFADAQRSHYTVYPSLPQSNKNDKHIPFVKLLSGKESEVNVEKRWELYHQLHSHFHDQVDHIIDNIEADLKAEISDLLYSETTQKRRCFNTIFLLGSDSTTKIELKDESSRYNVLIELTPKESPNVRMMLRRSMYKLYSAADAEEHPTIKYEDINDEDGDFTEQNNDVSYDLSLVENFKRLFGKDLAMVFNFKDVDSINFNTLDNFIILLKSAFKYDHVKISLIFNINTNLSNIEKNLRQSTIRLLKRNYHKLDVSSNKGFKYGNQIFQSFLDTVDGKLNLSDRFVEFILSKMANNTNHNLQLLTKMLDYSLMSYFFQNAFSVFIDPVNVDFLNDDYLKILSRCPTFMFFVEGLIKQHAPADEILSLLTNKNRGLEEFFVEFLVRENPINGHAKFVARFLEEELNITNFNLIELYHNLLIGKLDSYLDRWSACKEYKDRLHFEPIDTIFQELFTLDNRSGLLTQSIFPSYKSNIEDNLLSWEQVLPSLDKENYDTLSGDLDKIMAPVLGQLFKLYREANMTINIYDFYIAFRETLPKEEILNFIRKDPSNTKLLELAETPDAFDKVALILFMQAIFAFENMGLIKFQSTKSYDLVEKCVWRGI

T3: S. cerevisiae MBP–Orc1 (S. cerevisiae) (UniProt P54784)
T3 sequence: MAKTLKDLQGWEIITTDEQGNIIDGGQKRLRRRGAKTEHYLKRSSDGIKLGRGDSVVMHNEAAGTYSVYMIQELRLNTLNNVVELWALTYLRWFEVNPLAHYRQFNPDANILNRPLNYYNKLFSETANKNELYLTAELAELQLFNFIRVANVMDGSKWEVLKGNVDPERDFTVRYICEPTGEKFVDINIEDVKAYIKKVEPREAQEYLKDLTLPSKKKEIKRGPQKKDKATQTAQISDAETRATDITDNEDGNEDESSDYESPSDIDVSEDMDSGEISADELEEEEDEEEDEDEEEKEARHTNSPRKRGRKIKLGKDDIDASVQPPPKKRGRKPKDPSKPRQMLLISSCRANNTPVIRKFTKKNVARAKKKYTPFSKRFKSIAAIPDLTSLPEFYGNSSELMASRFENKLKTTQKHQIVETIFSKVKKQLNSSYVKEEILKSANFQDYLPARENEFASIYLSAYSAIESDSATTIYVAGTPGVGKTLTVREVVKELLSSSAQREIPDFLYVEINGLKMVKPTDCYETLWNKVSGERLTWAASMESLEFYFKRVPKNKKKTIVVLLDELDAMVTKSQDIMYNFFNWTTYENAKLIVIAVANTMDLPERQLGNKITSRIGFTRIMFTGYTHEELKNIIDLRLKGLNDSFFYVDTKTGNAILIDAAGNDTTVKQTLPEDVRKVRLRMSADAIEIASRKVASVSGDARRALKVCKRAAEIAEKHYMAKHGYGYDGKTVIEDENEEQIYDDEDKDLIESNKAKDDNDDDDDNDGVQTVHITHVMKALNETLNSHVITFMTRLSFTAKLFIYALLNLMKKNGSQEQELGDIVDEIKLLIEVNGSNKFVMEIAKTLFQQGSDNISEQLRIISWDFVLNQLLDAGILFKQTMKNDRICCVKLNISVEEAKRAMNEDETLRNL


Legend:
[1] = target: T1, Drosophila Orc2, endogenous in fly ovaries (Drosophila (endogenous in fly ovaries)); assay: co-IP; fly ovary extract (high-salt extraction, diluted), rabbit polyclonal Orc2 antibodies on Protein A-Sepharose; Western blot with anti-GFP, anti-Orc3, anti-Orc5; GFP fluorescence of the beads also measured
[2] = target: T2, S. cerevisiae MBP–Orc3 (S. cerevisiae); assay: pull-down; N-terminally MBP-tagged bait and N-terminally 6×His-tagged prey (with further ORC subunits where named) co-expressed in High5 cells by baculovirus co-infection; clarified lysate (50 mM Tris HCl pH 7.8, 300 mM KCl, 10% glycerol, 1 mM DTT; 0.78 M ammonium sulfate step) on amylose beads, three washes; Coomassie-stained SDS-PAGE, anti-His Western blot for some preys
[3] = target: T3, S. cerevisiae MBP–Orc1 (S. cerevisiae); assay: as above

| Binder | binding [1] | binding [2] | binding [3] |
| --- | --- | --- | --- |
| Drosophila Orc3 in untagged recombinant ORC (natural protein, Drosophila melanogaster, UniProt Q7K2L1 1-721, looked up, Drosophila Orc3, no purification tag; source: High5 cells co-infected with six baculoviruses, co-purified (Ni, amylose, TEV, gel filtration)) MDPTISVSKGCFVYKNGATRAGKKAASKRKRPAAESSSLLGKEVVQQPFYEEYRKAWNQINDHIADLQHRSYARTLEQLVDFVVGQAERDTPDEVLPTAALLTGINQPDHLSQFTALTQRLHAQRAAMVCVLQSRDCATLKAAVETLVFGLVEDNAEVEQMEDEDEDEDGAERDRKRLRRSQCTMKQLKSWYTNNFDSEQKRRQLVVILPDFECFNASVLQDLILILSAHCGSLPFVLVLGVATAMTAVHGTLPYHVSSKIRLRVFQTQAAPTGLNEVLDKVLLSPKYAFHLSGKTFKFLTHIFLYYDFSIHGFIQGFKYCLMEHFFGGNAFALCTDYSKALGRIKQLTHEDMETIRRLPSFRPYVEQINDCKRIIAVLTDDDYLKKKLPQLLRDCLLHFLLFRCSLEFLTELVGDLPRCPLGKLRRELYVNCLNRAIISTPEYKECLQMLSFLSKDEFVAKVNRALERTEQFLVEEIAPLELGEACTAVLRPKLEAIRLAVDEVVKATMATITTTSPNETRQATDHLTPVASRQELKDQLLQRSKEDKMRHQLNTPTTQFGRALQKTLQLIETQIVQDHLRALQDAPPIHELFVFSDIATVRRNIIGAPRAALHTALNNPHFYMQCKCCELQDQSLLVGTLPDLSVVYKLHLECGRMINLFDWLQAFRSVVSDSDHEEVAQEQIDPQIQARFTRAVAELQFLGYIKMSKRKTDHATRLTW | binds | – | – |
| Drosophila Orc5 in untagged recombinant ORC (natural protein, Drosophila melanogaster, UniProt Q24169 1-460, looked up, Drosophila Orc5; the methods list Orc4 twice and leave Orc5 out of the untagged subunits; source: High5 cells co-infected with six baculoviruses, co-purified (Ni, amylose, TEV, gel filtration)) MEAICSSLEPLFPCREAAIETLGELIGDSSETYPSAIYLFGHSGTGKTALTRAFLKECGKRQNVRTAHLNAIECYTTKIMLEILLDSLAPDQGDALKVDNMLDFVEQLRRQAATRVEDQGFLIAVDNAERLRDMDANVLPVLLRLQELTNLNLCVILLSQLPFEKFYNKTGLSEIVCLHLAQYNKAETQRILGSDFQQVRNQLLEQFAQDKKRLEICQEAVTEDFYNNYLNLFLSVFYKACRDVPELQLTARKCLSTYLEPVLDGTVDATDISRLWRHIAGPLRSALTQIYMRIEKPAEEVEDFTAIEDQSVRKLAQSLELPYYAKFLLIAAFLASHNAAKQDKRLFVKHHGKQRKRMQTVNARAKTTEKMSTTLGPKSFSIDRLLAIFYAILEEKVGLTCNLLSQISTLVHLNLLSFVSGEQNIMEGSARLQCTIGLEFVLQIGKVVGFNVRQYLCDFM | binds | – | – |
| S. cerevisiae Orc2, His-tagged (protein, UniProt P32833 1-620) MLNGEDFVEHNDILSSPAKSRNVTPKRVDPHGERQLRRIHSSKKNLLERISLVGNERKNTSPDPALKPKTPSKAPRKRGRPRKIQEELTDRIKKDEKDTISSKKKRKLDKDTSGNVNEESKTSNNKQVMEKTGIKEKREREKIQVATTTYEDNVTPQTDDNFVSNSPEPPEPATPSKKSLTTNHDFTSPLKQIIMNNLKEYKDSTSPGKLTLSRNFTPTPVPKNKKLYQTSETKSASSFLDTFEGYFDQRKIVRTNAKSRHTMSMAPDVTREEFSLVSNFFNENFQKRPRQKLFEIQKKMFPQYWFELTQGFSLLFYGVGSKRNFLEEFAIDYLSPKIAYSQLAYENELQQNKPVNSIPCLILNGYNPSCNYRDVFKEITDLLVPAELTRSETKYWGNHVILQIQKMIDFYKNQPLDIKLILVVHNLDGPSIRKNTFQTMLSFLSVIRQIAIVASTDHIYAPLLWDNMKAQNYNFVFHDISNFEPSTVESTFQDVMKMGKSDTSSGAEGAKYVLQSLTVNSKKMYKLLIETQMQNMGNLSANTGPKRGTQRTGVELKLFNHLCAADFIASNEIALRSMLREFIEHKMANITKNNSGMEIIWVPYTYAELEKLLKTVLNTL | – | binds | – |
| S. cerevisiae Orc4 co-expressed with the other ORC subunits (protein, UniProt P54791 1-529) MTISEARLSPQVNLLPIKRHSNEEVEETAAILKKRTIDNEKCKDSDPGFGSLQRRLLQQLYGTLPTDEKIIFTYLQDCQQEIDRIIKQSIIQKESHSVILVGPRQSYKTYLLDYELSLLQQSYKEQFITIRLNGFIHSEQTAINGIATQLEQQLQKIHGSEEKIDDTSLETISSGSLTEVFEKILLLLDSTTKTRNEDSGEVDRESITKITVVFIFDEIDTFAGPVRQTLLYNLFDMVEHSRVPVCIFGCTTKLNILEYLEKRVKSRFSQRVIYMPQIQNLDDMVDAVRNLLTVRSEISPWVSQWNETLEKELSDPRSNLNRHIRMNFETFRSLPTLKNSIIPLVATSKNFGSLCTAIKSCSFLDIYNKNQLSNNLTGRLQSLSDLELAILISAARVALRAKDGSFNFNLAYAEYEKMIKAINSRIPTVAPTTNVGTGQSTFSIDNTIKLWLKKDVKNVWENLVQLDFFTEKSAVGLRDNATAAFYASNYQFQGTMIPFDLRSYQMQIILQELRRIIPKSNMYYSWTQL | – | – | binds |
| S. cerevisiae Orc5 co-expressed with the other ORC subunits (protein, UniProt P50874 1-479) MNVTTPEVAFREYQTNCLASYISADPDITPSNLILQGYSGTGKTYTLKKYFNANPNLHAVWLEPVELVSWKPLLQAIARTVQYKLKTLYPNIPTTDYDPLQVEEPFLLVKTLHNIFVQYESLQEKTCLFLILDGFDSLQDLDAALFNKYIKLNELLPKDSKINIKFIYTMLETSFLQRYSTHCIPTVMFPRYNVDEVSTILVMSRCGELMEDSCLRKRIIEEQITDCTDDQFQNVAANFIHLIVQAFHSYTGNDIFALNDLIDFKWPKYVSRITKENIFEPLALYKSAIKLFLSTDDNLSENGQGESAITTNRDDLENSQTYDLSIISKYLLIASYICSYLEPRYDASIFSRKTRIIQGRAAYGRRKKKEVNPRYLQPSLFAIERLLAIFQAIFPIQGKAESGSLSALREESLMKANIEVFQNLSELHTLKLIATTMNKNIDYLSPKVRWKVNVPWEIIKEISESVHFNISDYFSDIHE | – | – | binds |
| S. cerevisiae Orc6-Y418S, His-tagged (protein, UniProt P38826 1-435) MSMQQVQHCVAEVLRLDPQEKPDWSSGYLKKLTNATSILYNTSLNKVMLKQDEEVARCHICAYIASQKMNEKHMPDLCYYIDSIPLEPKKAKHLMNLFRQSLSNSSPMKQFAWTPSPKKNKRSPVKNGGRFTSSDPKELRNQLFGTPTKVRKSQNNDSFVIPELPPMQTNESPSITRRKLAFEEDEDEDEEEPGNDGLSLKSHSNKSITGTRNVDSDEYENHESDPTSEEEPLGVQESRSGRTKQNKAVGKPQSELKTAKALRKRGRIPNSLLVKKYCKMTTEEIIRLCNDFELPREVAYKIVDEYNINASRLVCPWQLVCGLVLNCTFIVFNERRRKDPRIDHFIVSKMCSLMLTSKVDDVIECVKLVKELIIGEKWFRDLQIRYDDFDGIRYDEIIFRKLGSMLQTTNILVTDDQSNIWKKRIEMDLALTEPL | – | no binding | – |
